This is one part of the list. Single values are uncertain, as repeats are few or missing.
Assays:
Test in all cases: cell viability relative to vehicle (% of vehicle); basal-like triple-negative breast cancer lines; higher = less cytotoxic
Details in all cases: 10 µM; 72 h
HCC-1143 = test system: HCC-1143
HCC-1187 = test system: HCC-1187
MDA-468 = test system: MDA-468
SUM-149 = test system: SUM-149
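Further: stably firefly luciferase-GFP labeled cells in 96-well plates, viability read as luciferase photon flux after d-luciferin addition, treated wells normalized to vehicle wells, single-dose high-throughput screen.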

| SMILES | cell viability (HCC-1143) | cell viability (HCC-1187) | cell viability (MDA-468) | cell viability (SUM-149) |
| --- | --- | --- | --- | --- |
| CNC(=O)[C@H](Cc1ccccc1)NC(=O)[C@H](CC(C)C)[C@H](CSc1cccs1)C(=O)NO [Batimastat (BB-94)] | 93.3 | 78.7 | 72.4 | 68.2 |
| O=C(O)C1=COC(OC2OC(CO)C(O)C(O)C2O)C2C(CO)=CCC12 (stereo unspecified) [Geniposidic acid] | 89.3 | 88.5 | 117 | 116 |
| CCCC1CC(C(=O)NC(C(C)Cl)C2OC(SC)C(OP(=O)(O)O)C(O)C2O)N(C)C1 (stereo unspecified) [Clindamycin Phosphate] | 61.3 | 86.1 | 95 | 87.3 |
| CCOC(=O)c1c(CSc2ccccc2)n(C)c2cc(Br)c(O)c(CN(C)C)c12.Cl [Arbidol HCl] | 116 | 131 | 108 | 98.6 |
| Cc1cccc(-c2nn3c(c2-c2ccnc4ccc(C(N)=O)cc24)CCC3)n1 | 82.1 | 127 | 112 | 78.7 |
| CC(=Cc1ccccc1)C=C1SC(=S)N(CC(=O)O)C1=O [Epalrestat] | 117 | 112 | 162 | 123 |
| Cc1cc(-n2c(=O)[nH]c(=O)n(C)c2=O)ccc1Oc1ccc(SC(F)(F)F)cc1 [Toltrazuril] | 95.3 | 88.6 | 98.7 | 92.1 |
| CN(C)CCc1c[nH]c2ccc(CC3COC(=O)N3)cc12 (stereo unspecified) [Zolmitriptan] | 72.6 | 97.5 | 119 | 106 |
| C=C1C(=CC=C2CCCC3(C)C2CCC3C(C)CCCC(C)(C)O)CC(O)CC1O (stereo unspecified) [Calcitriol] | 68.5 | 122 | 80.9 | 78.4 |
